Test results reported in US10525106B2, “Angiopoietin-based interventions for treating cerebral malaria” (Regeneron Pharmaceuticals, Inc., priority 2013, dated 2020).

Experiments:
IFN-gamma = IFN-gamma plasma level by ELISA in PbA-infected mice; type: in vivo; settings: C57Bl/6 mice, 25 mg/kg sc on Day 4 and Day 6, day 6 post-infection (FIG. 19a)
Method: (§1) Peripheral whole blood was collected by saphenous venipuncture on day 0 (d 0; prior to PbA infection) and d 6 p.i. into heparinized tubes (Starstedt). Plasma was isolated from whole blood samples by centrifugation at 1000×g for 15 min. Plasma samples were aliquoted and stored at −80° C. until analyzed. Levels of mouse intercellular adhesion molecule-1 (sICAM-1/CD54), E-Selectin (sE-Sel/CD62E) and Vascular Cell Adhesion Molecule-1 (sVCAM-1/CD106) in their soluble forms were determined in plasma using commercially available murine ELISA kits (R&D Systems, Minneapolis, USA), according to the manufacturers protocol. Levels of von Willebrand Factor antigen (vWF:Ag) was measured in serum by ELISA as follows: 96-well MaxiSorp plates (Nunc) were coated overnight at 4° C. with a polyclonal antibody anti-human vWF (1:600, Dako, Glostrup, Denmark) in 0.01M PBS. Mouse serum was plated in 1% BSA-PBS and bound vWF:Ag was detected with horseradish peroxidase (HRP)-conjugated polyclonal antibody anti-human vWF (1:8000, Dako). […] IFN-gamma and TNF-alpha were determined in plasma using commercially available murine ELISA kits (eBioscience), according to the manufacturer's protocol.

TNF-alpha = TNF-alpha plasma level by ELISA in PbA-infected mice; type: in vivo; settings: C57Bl/6 mice, 25 mg/kg sc on Day 4 and Day 6, day 6 post-infection (FIG. 19a)
Method: as §1

sICAM-1/CD54 = assay: Soluble ICAM-1 plasma level by ELISA in PbA-infected mice; type: in vivo; settings: C57Bl/6 mice, day 6 post-infection, p<0.05 (FIG. 19c)
Method: as §1

[1] = tested on: Plasmodium berghei ANKA (PbA)-induced experimental cerebral malaria; assay: Evans Blue permeability assay in brain (blood brain barrier integrity); type: in vivo, mice
Method: Vascular permeability in the brain was assessed using Evans blue (EB) dye. Mice were intravenously injected via tail vein with 0.1 mL of 1% Evans blue dye solution (Evans Blue powder; Sigma-Aldrich in PBS, filter sterilized) when clinical signs of ECM were observed. Mice were euthanized with isoflurane (99.9% inhalational anesthetic) after 1 hour, perfused with 50 mL of PBS (1×). Brains were dissected aseptically, weighed, photographed and placed in 1 mL N, N-dimethylformamide for 48 hours at room temperature to extract dye from tissue. Absorbance was measured at 620 nm. The concentration was calculated using a standard curve of EB dye and expressed as ng dye per gram of brain tissue.

[2] = tested on: Plasmodium berghei ANKA (PbA)-induced experimental cerebral malaria; assay: Survival of mice infected with PbA (Kaplan Meier, log rank test); type: in vivo
From the text: Cryopreserved Plasmodium berghei ANKA (PbA; MR4, Manassas, Va.) was passaged through naïve C57Bl/6 mice. For the experiment, infection was initiated in C57Bl/6 and BALB/c mice by intraperitoneal (ip) injection of 1×10^6 freshly-isolated parasitized erythrocytes (PE) obtained from donor passage mice. Parasitemia was monitored by thin-blood smear stained with modified Geimsa stain (Protocol Hema3 Stain Set, Sigma, Oakville, ON) by counting at least 1500 erythrocytes. The infected mice were monitored for survival, neurological impairment, vascular leakage, parasite burden, and levels of angiogenic factors and markers of endothelial activation.
(§2) Post-infection survival of mice was plotted as Kaplan Meier curves using a log rank test for comparison. Quantitative assessment of ECM-associated neurological impairment (impaired coordination and motor performance) was performed daily using the 10 parameter Rapid Murine Coma and Behavioral Score (RMCBS), as previously described by Carroll R W, et al. 2010 in PLoS ONE 5: e13124. Signs of ECM include impaired balance/coordination, motor impairment (ataxia, hemiplegia/paraplegia), loss of reflexes and self-preservation, lack of hygiene-related behavior (grooming) and/or fitting. For each parameter, a score was assigned from 0 to 2, with 0 indicating the lowest function and a score of 2 the highest. Total scores for each mouse were calculated and provided as a percentage of the total possible score. Mice with a score of 35% or less were deemed to have severe ECM.
Statistical analysis was performed using GraphPad Prism version 4.00 (San Diego, Calif.). Post-infection survival of mice was plotted as Kaplan Meier curves and assessed using log-rank test. Survival studies were conducted in triplicate and data pooled unless otherwise specified. Shapiro-Wilk test was used to determine normally distributed data and comparisons between groups were assessed using the non-parametric Mann-Whitney test or Kruskal-Wallis test followed by Dunn's post-hoc. Two-way ANOVA was used to compare between groups over multiple time-points. […]

sVCAM-1/CD106 = assay: Soluble VCAM-1 plasma level by ELISA in PbA-infected mice; type: in vivo; settings: C57Bl/6 mice, day 6 post-infection, p<0.05 (FIG. 19c)
Method: as §1

[3] = tested on: Plasmodium berghei ANKA (PbA)-induced experimental cerebral malaria; assay: Neurological impairment by Rapid Murine Coma and Behavioral Score (RMCBS); type: in vivo; settings: C57Bl/6 mice, 25 mg/kg sc on Day 4 and Day 6 (Example 3, FIG. 17)
Method: as §2

[4] = tested on: Plasmodium berghei ANKA (PbA); assay: Vascular permeability in lung by Evans Blue staining (malaria-associated acute lung injury); type: in vivo; settings: C57Bl/6 mice, 15 mg/kg sc on Days 4 and 6, expected result (Example 5)
Method: In this Example, the effect of AngF1-Fc-F1 administration on vascular permeability in lung and malaria-associated acute lung injury in infected mice will be studied. Twenty C57Bl/6 mice will be infected with Plasmodium berghei ANKA (PbA) via an intraperitoneal injection of 1×10^6 freshly-isolated parasitized erythrocytes (PE) obtained from donor passage mice on Day 0. The infected mice will be treated with 15 mg/kg of AngF1-Fc-F1 (SEQ ID NO: 2) on Days 4, and 6 post-infection via subcutaneous injection. The mice will be monitored for survival and vascular permeability in lung by Evans Blue staining.

[5] = resistant BALB/c mice, expected result of a further experiment

B1: AngF1-Fc-F1: modified angiopoietin: fibrinogen-like domain of angiopoietin fused to Fc fragment fused to a second fibrinogen-like domain, SEQ ID NO: 2 (protein)
chain: FRDCADVYQAGFNKSGIYTIYINNMPEPKKVFCNMDVNGGGWTVIQHREDGSLDFQRGWKEYKMGFGNPSGEYWLGNEFIFAITSQRQYMLRIELMDWEGNRAYSQYDRFHIGNEKQNYRLYLKGHTGTAGKQSSLILHGADFSTKDADNDNCMCKCALMLTGGWWFDACGPSNLNGMFYTAGQNHGKLNGIKWHYFKGPSYSLRSTTMMIRPLDF[skipping human IgG1 Fc]RDCADVYQAGFNKSGIYTIYINNMPEPKKVFCNMDVNGGGWTVIQHREDGSLDFQRGWKEYKMGFGNPSGEYWLGNEFIFAITSQRQYMLRIELMDWEGNRAYSQYDRFHIGNEKQNYRLYLKGHTGTAGKQSSLILHGADFSTKDADNDNCMCKCALMLTGGWWFDACGPSNLNGMFYTAGQNHGKLNGIKWHYFKGPSYSLRSTTMMIRPLDF
- plasma level of IFNγ vs control (IFN-gamma): did not affect
- plasma level of TNF vs control (TNF-alpha): did not affect
- circulating levels of sICAM-1 compared to PbA-infected controls (sICAM-1/CD54): significantly reduced
- Evans Blue dye uptake in brain (blood brain barrier integrity) ([1]; C57Bl/6 mice, 25 mg/kg sc on Day 4 and Day 6, p<0.05, Kruskal-Wallis (Example 3, FIG. 16a)): significantly low amount of dye uptake
- protection of blood brain barrier integrity [1, 5]: improved protection
- survival up to at least Day 15 p.i. ([2]; C57Bl/6 mice, 25 mg/kg sc on Day 4 and Day 6 post infection (Example 3)): more than 35%
- survival compared to isotype control, anti-Ang2 antibody or dual blocking antibody ([2]; C57Bl/6 mice, 25 mg/kg sc on Day 4 and Day 6 post infection, p<0.05, log rank test (Example 3, FIG. 14)): significantly improved survival
- survival of infected BALB/c mice [2, 5]: improved protection
- circulating levels of sVCAM-1 compared to PbA-infected controls (sVCAM-1/CD106): significantly reduced
- ECM-associated morbidity and neurological impairment (RMCBS) [3]: prevented ECM-associated morbidity and neurological impairment
- Evans Blue dye uptake in lungs (vascular permeability, acute lung injury) [4]: absence of Evans Blue dye uptake in lungs
